In patent US20250170255A1 (Daiichi Sankyo, published 2025):

How the values were obtained:
[1] = target: T1, biotinylated human CD98 antigen (human, UniProt P08195 105-529, biotinylated with EZ-Link NHS-PEG4-Biotin (ELISA)); experiment: ELISA pH 7.5 against pH 5.5
T1 construct: extracellular domain
T1 sequence (looked up): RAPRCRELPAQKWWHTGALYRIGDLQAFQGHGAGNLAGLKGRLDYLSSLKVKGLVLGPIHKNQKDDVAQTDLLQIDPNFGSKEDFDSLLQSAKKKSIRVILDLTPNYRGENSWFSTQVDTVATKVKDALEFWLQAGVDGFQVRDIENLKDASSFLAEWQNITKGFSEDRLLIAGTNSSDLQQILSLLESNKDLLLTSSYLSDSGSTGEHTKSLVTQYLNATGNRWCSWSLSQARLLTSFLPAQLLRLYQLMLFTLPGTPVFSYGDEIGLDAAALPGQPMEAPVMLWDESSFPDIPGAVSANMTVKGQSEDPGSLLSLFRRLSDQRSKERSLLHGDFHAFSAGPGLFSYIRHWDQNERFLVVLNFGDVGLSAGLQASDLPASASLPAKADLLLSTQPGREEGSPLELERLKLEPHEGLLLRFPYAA

[2] = target: T1, biotinylated human CD98 antigen; experiment: ELISA, immobilised biotinylated human CD98 antigen, chemiluminescence; pH 5.5
[3] = target: T1, biotinylated human CD98 antigen; experiment: ELISA, immobilised biotinylated human CD98 antigen, chemiluminescence; pH 7.5
[4] = target: T1, biotinylated human CD98 antigen; experiment: ELISA with and without MMP1
[5] = target: T2, biotinylated amino terminal peptide of human GPRC5D (human, added C-terminal Lys carries biotin, K (Biotin)-NH2 (C-terminal amide)); experiment: ELISA pH 7.5 against pH 5.5
T2 construct: Synthetic peptide (Peptide Institute); also called human GPRC5D antigen
T2 peptide: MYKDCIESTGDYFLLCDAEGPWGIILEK

B1: anti-CD98 masked antibody MhM8001 (antibody)
heavy: QVQLVQSGAEVKKPGASVKVSCKASGYAFSNYLIEWVRQAPGQGLEWMGVINPGSGVTNYNEKFKGRVTITADTSTSTAYMELSSLRSEDTAVYYCARAEAWFAYWGQGTLVTVSSASTKGPSVFPLAPSSKSTSGGTAALGCLVKDYFPEPVTVSWNSGALTSGVHTFPAVLQSSGLYSLSSVVTVPSSSLGTQTYICNVNHKPSNTKVDKRV[human IgG1 Fc not spelt out]
light: GENMWNDLDLVPLGILGGGGSGHHHGGHHHGGHHHGGSDIVMTQSPDSLAVSLGERATINCKSSQSLLYSSNQKNYLAWYQQKPGQPPKLLIYWASTRESGVPDRFSGSGSGTDFTLTISSLQAEDVAVYYCQRYYGYPWTFGQGTKVEIKRTVAAPSVFIFPPSDEQLKSGTASVVCLLNNFYPREAKVQWKVDNALQSGNSQESVTEQDSKDSTYSLSSTLTLSKADYEKHKVYACEVTHQGLSSPVTKSFNRGEC
notes: Mimotope and pH-responsive linker (3 His clusters) on the light chain; Full-length entries
EC50 ratio (neutral pH conditions/acidic pH conditions) [1]: 13.1 | EC50 (read off the curve) [2]: ~1 nM | EC50 (read off the curve) [3]: ~20 nM

B2: anti-CD98 masked antibody MhM1013 (antibody)
heavy: QVQLVQSGAEVKKPGASVKVSCKASGYAFSNYLIEWVRQAPGQGLEWMGVINPGSGVTNYNEKFKGRVTITADTSTSTAYMELSSLRSEDTAVYYCARAEAWFAYWGQGTLVTVSSASTKGPSVFPLAPSSKSTSGGTAALGCLVKDYFPEPVTVSWNSGALTSGVHTFPAVLQSSGLYSLSSVVTVPSSSLGTQTYICNVNHKPSNTKVDKRV[human IgG1 Fc not spelt out]
light: GNFYHQYPWPLEILGSGSGGGGSVLVPMAMMASGGSDIVMTQSPDSLAVSLGERATINCKSSQSLLYSSNQKNYLAWYQQKPGQPPKLLIYWASTRESGVPDRFSGSGSGTDFTLTISSLQAEDVAVYYCQRYYGYPWTFGQGTKVEIKRTVAAPSVFIFPPSDEQLKSGTASVVCLLNNFYPREAKVQWKVDNALQSGNSQESVTEQDSKDSTYSLSSTLTLSKADYEKHKVYACEVTHQGLSSPVTKSFNRGEC
notes: ZPZP lib-derived mimotope, MMP-cleavable, on the light chain; Full-length entries
EC50 ratio of binding intensity (without MMP1 / with MMP1) [4]: 239

B3: anti-GPRC5D masked antibody MC3-9001 (antibody)
heavy: GETMSVFTRDYFTETPGGGGSGHHHGGHHHGGHHHGGSQVQLVQSGAEVKKPGASVKVSCKASGYTFTGYYMHWVRQAPGQGLEWMGRINPNSGGTNYAQKFQGRVTMTRDTSISTAYMELSGLRSDDTAVYYCASGSVRHPWGQGTLVTVSSASTKGPSVFPLAPSSKSTSGGTAALGCLVKDYFPEPVTVSWNSGALTSGVHTFPAVLQSSGLYSLSSVVTVPSSSLGTQTYICNVNHKPSNTKVDKRV[human IgG1 Fc not spelt out]
light: QPVLTQPPSASGTPGQRVTISCSGSRSNIGGNIVSWYQQFPGTAPRLLTYADNQRPSGVPDRFSGSKSGTSASLAISGLQSEDEADYYCAAWDDSLNGVVFGGGTKLTVLGQPKAAPSVTLFPPSSEELQANKATLVCLISDFYPGAVTVAWKADSSPVKAGVETTTPSKQSNNKYAASSYLSLTPEQWKSHRSYSCQVTHEGSTVEKTVAPTECS
notes: Mimotope and pH-responsive linker on the heavy chain; Full-length entries
EC50 ratio (neutral pH conditions/acidic pH conditions) [5]: 40.4
